Reference: the RNAGym collection of RNA variant scans (doi:10.7554/elife.90254)
Read counts are not given, so values of variants with three or more changes are uncertain.

B1: LINE1-mini (parent)
chain: GGCAGAGCUCAACACAGCGUGGCAAAGUGGCUGUGGCUAGACUGCC

Variants of: B1
Experiment: self-cleavage, relative activity (ratio to wild type); higher = more cleavage; in vitro, sequencing; the parent is a self-cleaving ribozyme
GGCAGAGCUCAACACAUCGUGGCAAGGUGGCUGUGGCAAGAUUGCC showed a self-cleavage of 0.05. GGCAGAGCUCAACACAUCGUGUAAAAGUGGCUGUGUCUAGAAUGCA gave a self-cleavage of 0.01. GGCAGAGCUCAACACAUAGUGGUAAAGUGGUUGUGGCUAGACUGCG gave a self-cleavage of 0.03. GGCAGAGCUCAACACAUCGUGGCAAAGUCGCUGUGGCAAGACUGCC gave a self-cleavage of 0.22. GGCAGAGCUCAACACAUACGGGCAAGGUGGCCAUGGCUAGACUGCC gave a self-cleavage of 0.03. With GGCAGAGCUCAACACAUCGUAGCAAAGUGGCUGUGGCUCGACUGCC the self-cleavage was 0.06. Work on GGCAGAGCUCAACACAUUGUGGCAAUGUGGCUGUGCCUAGACUGCC yielded a self-cleavage of 0.03. Variant GGCAGAGCUCAACACAUGGUGGCAGAGUGGCUGUGGCUAGACUUCC has a self-cleavage of 0.03. In the case of GGCAGAGCUCAACACAUCGUGGCAAGGUGGCUGUGGCUAAACUGCC, the self-cleavage is reported as 0.03. For GGCAGAGCUCAACACAUCGUGGUUAAGUGGCUGUGGCUAGACUGCC, the self-cleavage was 0.14. With GGCAGAGCUCAACACAUCGUGGCAAAGUGCCUGUGCCUACACCAUC the self-cleavage was 0.01. With GGCAGAGCUCAACACAUCGUGGCAAAGUGGAUGUGGCUAAACUGAC the self-cleavage was 0.04. For GGCAGAGCUCAACACAUAGUGUCAAAGUAGCUGAGGCUAGACUGCC, the self-cleavage was 0.19. Work on GGCAGAGCUCAACACAUCGUGGAAAAAUGGAUGUGGCUGCACUGCC yielded a self-cleavage of 0.02. GGCAGAGCUCAACACAUCCUGUCAAAGUGGCUGUGGCUAGACUGCC gave a self-cleavage of 1.22. In the case of GGCAGAGCUCAACACAUCUUGGCAAAGUUGCUGUGGCUAGACUGCC, the self-cleavage is reported as 0.4. With GGCAGAGCUCAACACAUCGUGGCAAAGUGGGUGUGGCUUCACUGCC the self-cleavage was 0.09. With GGCAGAGCUCAACACAUCGUGGCAAAAUGGCUGUGGCUAGACUGUC the self-cleavage was 0.23. In the case of GGCAGAGCUCAACACAUCGUGGCAAAGUGGCUGUGGGUACACUGCC, the self-cleavage is reported as 0.01. In the case of GGCAGAGCUCAACACAUCGUGACAAAGUGGCUGUGGCAAGACUGCC, the self-cleavage is reported as 0.25. With GGCAGAGCUCAACACAUCGUGUCAACGUGGCUGUGGCUAGAUUGCC the self-cleavage was 0.09. Variant GGCAGAGCUCAACACAUAGUGGCAAAGUGGCUGUCGCUAGACUGCC has a self-cleavage of 0.2. Work on GGCAGAGCUCAACACAUCGUGGCAUCGUUGCUGUGGCUAGACUGCC yielded a self-cleavage of 0.34. Work on GGCAGAGCUCAACACAUCGUGGCAAAGUUGCUGUGGUUAGCCUGCC yielded a self-cleavage of 0.02. In the case of GGCAGAGCUCAACACAUCGUGGCAUAGUGGCUGUGGCGAGACUGCC, the self-cleavage is reported as 0.02. For GGCAGAGCUCAACACAUCGUUGCAAGGUGGCUGUCGCUAGACUGCC, the self-cleavage was 0.02. For GGCAGAGCUCAACACAUCGUUGCAACGUGGCUGUGGCUAGACUGCC, the self-cleavage was 0.1. Work on GGCAGAGCUCAACACAUCGUGGGAAAGUGGCUAUGGCUCGACUGCC yielded a self-cleavage of 0.03. With GGCAGAGCUCAACACAUCGUGGCAAAGUGGAUGUGGCUAGACUCCC the self-cleavage was 0.14. GGCAGAGCUCAACACAUCGUUGCAAAGUCGCUGUGGCUAGCCUGCC gave a self-cleavage of 0.02. GGCAGAGCUCAACACAUCGUGGCAAAGUGCUUGUGGACAGACUGCC showed a self-cleavage of 0.01. GGCAGAGCUCAACACAUCGUGGCAAAGUGGCUGUUGCUAGACUGAC showed a self-cleavage of 0.02. In the case of GGCAGAGCUCAACACAUCGUAGCGAAGGGGCUGUGGCGAGACUGCC, the self-cleavage is reported as 0.01. With GGCAGAGCUCAACACAUCGUGGCAAAGUGGCUGUUGCUAGACGCCC the self-cleavage was 0.01. GGCAGAGCUCAACACAUCGUGUCAAGGUGGCUGUGGCUAGACUGCC gave a self-cleavage of 0.07. With GGCAGAGCUCAACACAUCGUGACAAAGUGGCUGUGAGUAGACUGCC the self-cleavage was 0.02. With GGCAGAGCUCAACACAUCGUGGCAAUGUGCUUGUGGAUAGACUGCC the self-cleavage was 0.03. With GGCAGAGCUCAACACAUCGUGGCAAAAUGGCUGUGGCUAGACUGCU the self-cleavage was 0.09. GGCAGAGCUCAACACAUCGUGGCAAAGUGGUUGCGGAUAGACUGCC gave a self-cleavage of 0.04. In the case of GGCAGAGCUCAACACAUCGUGGCAAAAUAGCUGUGGCUAGACUGCC, the self-cleavage is reported as 0.12. GGCAGAGCUCAACACAUCGUUGCCAAGUGGCUGUGGCUAGACUGCC gave a self-cleavage of 1.44. GGCAGAGCUCAACACAUCGUGGUAAAGUGGCUGUGGAUAGACUGAC showed a self-cleavage of 0. Work on GGCAGAGCUCAACACAUCGUGGGAAAGUGCCUGUGGCUAGACUGCC yielded a self-cleavage of 0.07. In the case of GGCAGAGCUCAACACAUCGUGGCAAAGUGGCUGUAGCCAGACAACC, the self-cleavage is reported as 0.05. Work on GGCAGAGCUCAACACAUUGUGCCAAAGUGGAUGUGGCUAGACUGCU yielded a self-cleavage of 0.21. With GGCAGAGCUCAACACAUCGUGGCAAACUGGCUGUGGCUAGACUGGC the self-cleavage was 0.04. In the case of GGCAGAGCUCAACACAUCGUGGCAAAGUAGCUGUGGCUAAACUGCC, the self-cleavage is reported as 0.05. For GGCAGAGCUCAACACAUCGUGUGAAAGUGGCUGUUGCUAGACUUCC, the self-cleavage was 0.03. With GGCAGAGCUCAACACAUCGUGGCAAGGUUGCUGUGUCUACACUGCC the self-cleavage was 0.06. For GGCAGAGCUCAACACAUCGUGGCACAGUGGCUGAGGCAAGUCUGCC, the self-cleavage was 0.02. In the case of GGCAGAGCUCAACACAUCGUGGCAAAGUGGCUAUGGCGAGACUGUC, the self-cleavage is reported as 0.01. With GGCAGAGCUCAACACAUCGUGGCAAAGUCGCUGGGGAUAGGCAGUC the self-cleavage was 0.01. For GGCAGAGCUCAACACAUCGUGGCACAGUGGCUGUGGCUAGCCUGCC, the self-cleavage was 0.04. For GGCAGAGCUCAACACAUCGUGCCGAAGAGGCUGUGGCUAGACUGCC, the self-cleavage was 0.34. GGCAGAGCUCAACACAUCGUGUCAAAGUGACUGAGGAUAGACUGCC showed a self-cleavage of 0.08. Variant GGCAGAGCUCAACACAUCGUGGCAAAGUGGCUGUGGCUAGGCUCCC has a self-cleavage of 0.02.
